From article PMC4336329 (PLoS ONE, 2015)
Hit rate of the full screen: of about 310,000 compounds, about 2,200 (0.71%) showed an effect of 50% or more. The effect is printed as a negative number. The list shows a part of the results.

target: human ether-à-go-go-related gene (hERG) potassium channel (human, UniProt Q12809); experiment: primary screen, population patch clamp on CHO cells stably expressing hERG
Sequence (Q12809 whole entry, looked up): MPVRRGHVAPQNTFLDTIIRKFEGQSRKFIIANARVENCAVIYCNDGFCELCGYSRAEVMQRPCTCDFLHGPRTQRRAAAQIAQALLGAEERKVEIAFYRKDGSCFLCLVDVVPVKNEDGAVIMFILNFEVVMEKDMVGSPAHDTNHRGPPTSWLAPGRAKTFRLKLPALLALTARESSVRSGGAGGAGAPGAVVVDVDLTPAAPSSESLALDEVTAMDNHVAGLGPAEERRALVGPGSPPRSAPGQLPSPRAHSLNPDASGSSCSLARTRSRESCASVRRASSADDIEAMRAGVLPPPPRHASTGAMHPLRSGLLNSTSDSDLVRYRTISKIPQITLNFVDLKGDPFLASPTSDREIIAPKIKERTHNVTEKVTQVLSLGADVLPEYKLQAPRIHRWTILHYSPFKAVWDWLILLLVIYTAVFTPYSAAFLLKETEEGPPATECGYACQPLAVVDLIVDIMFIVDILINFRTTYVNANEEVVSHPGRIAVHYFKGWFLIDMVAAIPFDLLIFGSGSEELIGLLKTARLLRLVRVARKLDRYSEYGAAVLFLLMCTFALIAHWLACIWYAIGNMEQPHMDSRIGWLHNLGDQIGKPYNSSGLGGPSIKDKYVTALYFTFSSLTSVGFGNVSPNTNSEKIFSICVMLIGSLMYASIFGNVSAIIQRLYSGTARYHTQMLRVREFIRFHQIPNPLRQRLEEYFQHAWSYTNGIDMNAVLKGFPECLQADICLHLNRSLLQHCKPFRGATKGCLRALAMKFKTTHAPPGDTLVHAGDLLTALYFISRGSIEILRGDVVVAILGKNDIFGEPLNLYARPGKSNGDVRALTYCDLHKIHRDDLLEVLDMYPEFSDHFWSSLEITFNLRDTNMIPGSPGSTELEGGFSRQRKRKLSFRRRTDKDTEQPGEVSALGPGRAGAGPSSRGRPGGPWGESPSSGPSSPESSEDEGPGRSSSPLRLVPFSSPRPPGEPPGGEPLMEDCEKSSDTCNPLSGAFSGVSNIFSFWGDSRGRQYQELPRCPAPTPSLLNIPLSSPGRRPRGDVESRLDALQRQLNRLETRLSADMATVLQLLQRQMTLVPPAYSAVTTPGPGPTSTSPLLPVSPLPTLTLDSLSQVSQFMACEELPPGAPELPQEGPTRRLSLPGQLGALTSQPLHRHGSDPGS

| Compound | hERG current change (%, negative = inhibition) at 1uM [%] |
| --- | --- |
| COc1ccccc1CNC(=O)c1cc(C(=O)CC(C)C)c[nH]1 | 12 |
| O=C(N/N=C1/CCSC1)c1cccc([N+](=O)[O-])c1 | -0.549 |
| O=C(OCc1nc2ccccc2c(=O)[nH]1)c1cccs1 | 22.6 |
| Cc1cccc(OCC(=O)N/N=C\C=C\c2ccc3c(c2)OCO3)c1C | 5.45 |
| CCn1cc(/C=C(\NC(=O)c2ccccc2OC)C(=O)NCCCN2CCOCC2)c2ccccc21 | 2.07 |
| Cc1noc(C)c1COc1ccc(C(=O)N2CCCC(C(N)=O)C2)cc1 (centres unmarked) | 3.83 |
| O=C1CN(C(=O)N[C@@H](Cc2ccccc2)C(=O)N[C@@H](C(=O)O)c2ccccc2)c2ccccc2N1 | 19.7 |
| O=C(CCc1nnc(-c2ccccc2)o1)NCC1CCN(C2CCCC2)CC1 | 5.72 |
| CC(=O)N=c1sccn1CC(O)c1ccc(Br)cc1 (centres unmarked) | 15.6 |
| Cc1cc(C)n(CC(=O)NCCC2=CCCCC2)n1 | 10.5 |
| N/C(=N\NC(=O)c1cccs1)c1cc2ccccc2oc1=O | 0.826 |
| Cn1c(=O)c2c(nc(NCC3CCCO3)n2C)n(C)c1=O (centres unmarked) | 3.17 |
| Cc1nc(N2CCc3ccccc3C2)[nH]c(=O)c1CCC(C)C | 13.1 |
| O=C(COc1ccc(Cl)cc1Cl)NN=C1c2ccccc2-c2ccccc21 | 11.1 |
| O=C(O)CC(c1ccc(Cl)cc1)N1Cc2ccccc2C1=O (centres unmarked) | 12.7 |
| Cc1cc(C(=O)NC2CCCc3c2cnn3-c2ccccc2F)nc(C)n1 (centres unmarked) | 24.3 |
| Cc1ccc(Oc2nc3c(C)cccn3c(=O)c2/C=C(\C#N)C(N)=O)cc1 | 9.93 |
| Cc1ccc(C(=O)Nc2c(C)n(C)n(-c3ccccc3)c2=O)cc1S(=O)(=O)N1CCOCC1 | 3.25 |
| COC(=O)C1=C(c2cccc(C#N)c2)C[C@@H]2CC[C@H]1N2C(=O)NCCO | 18.4 |
| CCCC(=O)Nc1ccc(Cl)c(NC(=S)NC(=O)c2cc3ccccc3o2)c1 | 5.56 |
| O=C(CCN=C1NS(=O)(=O)c2ccccc21)N1CCc2ccccc2C1 | 12.4 |
| CCOc1ccc(NS(=O)(=O)c2ccc(C(=O)NNC(=O)c3ccccc3O)cc2)cc1 | 8.39 |
| CCCn1nc(NC(=O)COC)c2cc3cc(C)ccc3nc21 | 13.4 |

| Compound | hERG current change (%, negative = inhibition) at 1uM [%] |
| --- | --- |
| O/N=C(/CN(O)/C=C1/C=CC=N1)c1cccs1 | 7.13 |
| CCc1cc2c(SCC(=O)NC3CCS(=O)(=O)C3)ncnc2s1 (centres unmarked) | 5.8 |
| COc1ccc(NC(=O)CN2CCN(c3ccccc3Cl)CC2)cc1 | 1.08 |
| Br.COc1ccc(C(=O)CN2CC(C)SC2=Nc2ccc(Cl)cc2)cc1 (centres unmarked) | 11.8 |
| O=C(NC(=S)Nc1ccccc1Cl)c1csnn1 | 14 |
| CCOC(=O)c1cccc(OC(=O)CCNC(=O)c2ccc(Cl)cc2)c1 | -0.409 |
| CC1CC2(C)Oc3ccccc3CC2C(C)C1CNCCCN(C)C (centres unmarked) | 6.25 |
| CCN1CCN(S(=O)(=O)c2cc3c(cc2Cl)NC(=O)CO3)CC1 | 11 |
| NC(=O)C1CCN(C(=O)Cn2cccc2C(=O)c2ccccc2)CC1 | 10.1 |
| CC(C)Cn1c(N)c(C(=O)COC(=O)c2cc(-c3ccco3)nc3ccccc23)c(=O)n(C)c1=O | 16.2 |
| Cc1ccc(OCC(=O)NCc2ccccn2)cc1 | 6.06 |
| Cc1cc(=O)n2[nH]c(-c3ccc(Cl)cc3)cc2n1 | 14.4 |
| O=C(CCCN1C(=O)/C(=C/c2cccs2)SC1=S)NNC(=O)c1ccc(F)cc1 | 6.5 |
| Cc1cccc(NC(=O)CN2CCN(C(=O)C3CCCO3)CC2)c1C (centres unmarked) | 5.32 |
| Cc1cccc(NC(=O)CSc2nnc(C)c(C)n2)c1 | 17.1 |
| COc1ccc(O)c(-c2cc(-c3ccccc3Cl)[nH]n2)c1 | 13 |
| Cl.O=c1c(-c2ccccc2)c(O)nc(SCCN2CCOCC2)n1-c1ccccc1 | 22.1 |
| Cc1cccc(C(=O)Nc2nnc(-c3cccnc3)o2)c1 | 0.882 |
| O=[N+]([O-])c1cc(O)c2ncccc2c1 | 5.62 |
| CC(C)c1nnc(NC(=O)CN2C(=O)c3ccccc3C2=O)s1 | 1.84 |
| COc1cccc(C(=O)NN2CCOCC2)c1 | 6.58 |
| CCCN(CCC)S(=O)(=O)c1nc2nc(C)cc(C)n2n1 | 1.33 |
| CC(NCc1cccc(S(=O)(=O)N(C)C)c1)c1ccc(F)cc1 (centres unmarked) | 9.06 |

| Compound | hERG current change (%, negative = inhibition) at 1uM [%] |
| --- | --- |
| CC(=O)c1ccccc1NC(=O)c1ccc2c(c1)NC(=O)C(C)S2 (centres unmarked) | 2.68 |
| CCc1nc2ccc(C(=O)NC3CCC(C)CC3)cc2nc1CC (centres unmarked) | -7.1 |
| Cc1ccc(C)c(-n2sc3ccc(F)cc3c2=O)c1 | 17.7 |
| COC(=O)CC1=NN(c2ccccc2)C(=O)/C1=C\c1ccc(OC)cc1 | 7.42 |
| COC(=O)NNC(=O)C1CCC(C(=O)NNC(=O)OC)CC1 (centres unmarked) | 4.56 |
| Cc1c(/C=C2\NC(=O)NC2=O)c2ccccc2n1C | 10.9 |
| Cc1ccc(S(=O)(=O)c2c(C)cc(C)nc2Oc2cccc(C(F)(F)F)c2)cc1 | 14.5 |
| O=C(COC(=O)c1ccc[nH]c1=O)Nc1cc(S(=O)(=O)N2CCCCC2)ccc1Cl | 7.27 |
| COc1cccc(C(=O)Cn2c(Br)nc3c2c(=O)n(C)c(=O)n3C)c1 | -4.04 |
| O=C(N/N=C/c1ccncc1)c1ccc(NS(=O)(=O)c2cccs2)cc1 | 9.43 |
| COc1ccc(Cn2c(=O)[nH]c3cc(C(=O)NC4CCCC4)ccc3c2=O)cc1 | 8.84 |
| Cc1cccc(C)c1N(CC(=O)NCc1ccco1)C(=O)CNS(=O)(=O)c1ccc(F)cc1 | 3.59 |
| CN(Cc1ccccc1)C(=O)CSc1nc2ccccc2c(=O)n1Cc1ccco1 | 5.63 |
| CCCCNC(=S)NNC(=O)c1cc(-c2ccncc2)nc2ccccc12 | 18.7 |
| CCN(C(=O)COC(=O)CCC(=O)c1cccs1)c1c(N)n(Cc2ccccc2)c(=O)[nH]c1=O | 3.9 |
| O=C1/C(=C\c2cc3c(cc2Br)OCO3)N2CCC1CC2 | 15.2 |
| CC(C)[C@H](NC(=O)c1ccccc1)C(=O)OCC(=O)c1ccc2c(c1)NC(=O)CO2 | -2.99 |
| CSc1nnc(C2CCNCC2)n1C.Cl | 10.9 |
| COc1ccccc1NC(=O)C1=C(C)Nc2ncnn2C1c1cccs1 (centres unmarked) | 13.7 |
| CCC(=O)N1N=C(c2ccc(C)o2)CC1c1ccc(OC)cc1 (centres unmarked) | 13 |
| CCOCCc1c(O)nc(SCC(=O)N2CCOCC2)[nH]c1=O | 13.6 |
| CC(=O)C(Sc1ccc2nnc(-c3ccc(F)cc3)n2n1)C(C)=O | 13.5 |
| CCn1c(/C=C/c2ccc(F)cc2)nc2ccccc2c1=O | 7.01 |

| Compound | hERG current change (%, negative = inhibition) at 1uM [%] |
| --- | --- |
| CCC(c1nnnn1C(C)(C)CC)N(CCCN1CCOCC1)Cc1cc2cccc(C)c2[nH]c1=O (centres unmarked) | 0.0911 |
| CCCNC(=O)NC(=O)CSc1nncs1 | 25 |
| CCOC(=O)CCSCC(=O)N1N=C(c2cccs2)CC1c1ccc(C)cc1 (centres unmarked) | 8.6 |
| O=C(Nc1cc(F)cc(F)c1)c1ccc(NCCc2ccccc2)c([N+](=O)[O-])c1 | 9.2 |
| Cc1cc(NC(=O)CCC(=O)N(c2ccccc2)C(C(=O)NC2CCCC2)c2cccs2)no1 (centres unmarked) | 13.9 |
| COc1ccccc1N1CCN(C(=O)C(C)NC(=O)c2ccco2)CC1 (centres unmarked) | 6.25 |
| COc1cc(/C=N/S(=O)(=O)CCc2ccccc2)ccc1O | 7.5 |
| Cc1cccc(NC(=S)N/N=C2\CC(C)(C)Oc3ccc(O)cc32)c1 | 6.99 |
| Cc1ccc(-n2nc(C)c3c2OC(N)=C(C#N)C3c2ccccc2F)cc1 (centres unmarked) | 7.35 |
| CC(C)(C)C1CCC(OCC(O)CN2CCN(Cc3ccccc3)CC2)CC1.Cl (centres unmarked) | 13.2 |
| CC(C)NC(=O)c1cc(-n2cnnc2)ccc1Cl | 12.6 |
| CN(Cc1ccccc1)C(=S)Nc1ccc2nc3n(c(=O)c2c1)CCCCC3 | -21.8 |
| O=C1c2cc(S(=O)(=O)N(CCO)CCO)ccc2-c2ccc(S(=O)(=O)N(CCO)CCO)cc21 | 14.9 |
| COc1cc(CNC(C)(C)C)cc(Br)c1OCc1cccs1.Cl | 6.82 |
| CCOC(=O)Cn1c(=O)oc2cc(S(=O)(=O)N3CCCc4ccccc43)ccc21 | 1.84 |
| Cc1ccc(C(=O)NCC(=O)N2CCN(c3ncccn3)CC2)s1 | -6.12 |
| CCCC1C(c2ccccc2)C(C#N)(C#N)C2(C#N)CC1(N)NC2=O (centres unmarked) | 4.83 |
| CCOc1ccc(-c2cccc(NS(=O)(=O)c3cc([N+](=O)[O-])ccc3Cl)c2)nn1 | 13.3 |
| COCc1c(C(=O)Nc2ccc(Cl)cc2F)oc2ccccc12 | 4.3 |
| O=C(OCC(=O)N1CCN(C(=O)c2ccco2)CC1)c1cn(-c2ccccc2)nc1-c1ccccc1 | -23.1 |
